Results taken from paper PMC4336329 (PLoS ONE, 2015).
In all, about 310,000 compounds went through this assay and about 14,000 (4.5%) showed an effect of 50% or more. The effect is printed as a negative number. The list shows a part of the results.

Each compound was assayed against human ether-à-go-go-related gene (hERG) potassium channel (human, UniProt Q12809) (assay: primary screen, population patch clamp on CHO cells stably expressing hERG).
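Further: peak tail current of the secondary pulse compared with the same well before compound.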

Chain of human ether-à-go-go-related gene (hERG) potassium channel (Q12809 whole entry, looked up): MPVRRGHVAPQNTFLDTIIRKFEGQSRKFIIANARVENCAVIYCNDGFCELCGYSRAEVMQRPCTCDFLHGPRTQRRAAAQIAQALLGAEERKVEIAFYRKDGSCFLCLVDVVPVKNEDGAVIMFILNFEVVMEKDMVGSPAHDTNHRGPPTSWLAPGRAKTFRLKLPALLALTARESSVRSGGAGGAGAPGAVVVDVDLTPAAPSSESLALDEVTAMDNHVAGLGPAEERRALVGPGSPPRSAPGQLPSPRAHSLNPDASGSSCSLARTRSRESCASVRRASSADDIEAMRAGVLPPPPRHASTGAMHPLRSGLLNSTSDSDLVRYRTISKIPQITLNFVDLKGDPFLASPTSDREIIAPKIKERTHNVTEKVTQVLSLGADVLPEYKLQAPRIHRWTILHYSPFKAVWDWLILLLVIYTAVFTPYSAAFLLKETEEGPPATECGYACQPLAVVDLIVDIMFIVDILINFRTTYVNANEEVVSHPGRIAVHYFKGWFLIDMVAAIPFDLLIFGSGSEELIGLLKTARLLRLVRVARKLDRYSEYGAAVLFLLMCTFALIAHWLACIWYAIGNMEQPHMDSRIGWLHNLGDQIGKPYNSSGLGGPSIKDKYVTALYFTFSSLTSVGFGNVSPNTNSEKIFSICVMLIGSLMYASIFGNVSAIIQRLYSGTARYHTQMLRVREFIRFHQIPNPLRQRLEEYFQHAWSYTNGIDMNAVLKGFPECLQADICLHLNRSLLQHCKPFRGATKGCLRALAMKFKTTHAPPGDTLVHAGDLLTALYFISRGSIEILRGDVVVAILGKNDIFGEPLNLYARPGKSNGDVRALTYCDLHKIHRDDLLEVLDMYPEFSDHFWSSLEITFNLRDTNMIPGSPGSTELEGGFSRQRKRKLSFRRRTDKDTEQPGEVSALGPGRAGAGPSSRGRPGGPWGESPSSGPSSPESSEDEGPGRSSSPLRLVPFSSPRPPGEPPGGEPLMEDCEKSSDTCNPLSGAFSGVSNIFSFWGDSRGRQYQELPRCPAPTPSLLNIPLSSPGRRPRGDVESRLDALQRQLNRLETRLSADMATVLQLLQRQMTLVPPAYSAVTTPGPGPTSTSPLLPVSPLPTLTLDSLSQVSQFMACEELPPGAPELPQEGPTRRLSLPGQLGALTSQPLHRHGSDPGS

Compared with COC(=O)c1ccccc1NC(=O)N1C[C@@H]2C[C@@H](C1)c1cccc(=O)n1C2, CNC(=O)c1ccccc1NC(=O)c1c(O)c2c([nH]c1=O)CCCC2 is higher in “hERG current change (%, negative = inhibition) at 10uM” value: -12.4% for the first, -5.31% for the second.

Going from O=C(COc1cc2oc(=O)c3c(c2cc1Cl)CCCC3)NCc1cccnc1 to O=C(NCc1ccccc1)c1c(Cl)nc(Cl)c(Cl)c1Cl, the “hERG current change (%, negative = inhibition) at 10uM” value rises from -10% to 31.5%.

Compared with COCCCNc1oc(-c2ccccc2OC)nc1C#N, CCOC(=O)c1cc(C#N)c(Nc2ccccc2OC)nc1C(F)(F)F is higher in “hERG current change (%, negative = inhibition) at 10uM” value: -11.4% for the first, 14.4% for the second.

Compared with Cc1ccc(-c2nn(-c3ccccc3)cc2CC(=S)N2CCOCC2)cc1, O=C(c1cc2c(s1)-c1ccccc1OC2)N1CCN(c2ccccc2)CC1 is lower in “hERG current change (%, negative = inhibition) at 10uM” value: 16.4% for the first, 8.08% for the second.

Going from Cc1c(-c2cccs2)[n+](=O)c2c(n1[O-])CCC2 to Cc1ccc(NC(=O)c2c3c(nc4ccccc24)CCC3)cc1, the “hERG current change (%, negative = inhibition) at 10uM” value rises from -7.74% to 2.86%.

First: O=C(c1cc(N2C(=O)C3C4CCC(C4)C3C2=O)ccc1Cl)N1CCN(c2ccc(F)cc2)CC1 (centres unmarked)
Second: CCc1ccc(OCC(=O)Nc2ccc(N3CCN(S(C)(=O)=O)CC3)cc2)cc1
The “hERG current change (%, negative = inhibition) at 10uM” value of the first is lower: -42.4% for the first, 24.3% for the second.

Compared with COc1cccc(C(=O)NN2CC(O)=C(c3nc(C)cs3)C2=N)c1, COc1ccccc1N1CCN(C(=O)c2cc(C)on2)CC1 is lower in “hERG current change (%, negative = inhibition) at 10uM” value: 7.17% for the first, 6.46% for the second.

Going from O=C(NCCc1ccc(Cl)cc1)C1CCCN(S(=O)(=O)N2CCCCCC2)C1 (centres unmarked) to NS(=O)(=O)c1ccc(CCNC(=O)C2CCC(Cn3c(=S)[nH]c4ccccc4c3=O)CC2)cc1 (centres unmarked), the “hERG current change (%, negative = inhibition) at 10uM” value rises from -18.7% to 11.7%.

Going from CCOC(=O)c1c(NC(=O)CN2C(=O)C(=O)N(C(C)C)C2=O)sc(C)c1CC to CCc1cccc(C)c1NC(=O)C1CCN(c2nn3c(=O)cc(C)nc3s2)CC1, the “hERG current change (%, negative = inhibition) at 10uM” value rises from -8.82% to 2.53%.

Compared with Cc1ccc2c(CN3CC(C)CC(C)C3)cc(=O)oc2c1C (centres unmarked), CCC1CCCCN1Cc1ccc(OC)c(OC)c1 (centres unmarked) is lower in “hERG current change (%, negative = inhibition) at 10uM” value: -6.96% for the first, -33.1% for the second.

First: Cc1cc(C)c(NS(=O)(=O)c2cccc3cccnc23)c(C)c1
Second: Cc1ccc(C)c(NC(=S)N(CCc2nc3cc(C)c(C)cc3[nH]2)Cc2cccnc2)c1
The “hERG current change (%, negative = inhibition) at 10uM” value of the first is lower: -2.75% for the first, 18% for the second.

Going from Cc1cc(S(=O)(=O)ON2C(=O)c3ccccc3C2=O)ccc1F to O=[N+]([O-])c1cc(S(=O)(=O)C(F)(F)F)ccc1Sc1nc2ccccc2s1, the “hERG current change (%, negative = inhibition) at 10uM” value rises from 15.7% to 15.9%.

Going from Cc1ccc(C(C)(O)CS(=O)(=O)Cc2ccccc2Cl)cc1 (centres unmarked) to Cc1ccc(CC(=O)NCCc2ccc(S(N)(=O)=O)cc2)cc1, the “hERG current change (%, negative = inhibition) at 10uM” value falls from 11.2% to 5.87%.

Going from CC1CCCCN1S(=O)(=O)c1ccc(NC(=O)c2cccc(-n3cnnn3)c2)cc1 (centres unmarked) to COc1ccc(S(=O)(=O)N2CCOCC2)cc1NC(=O)Cc1c(Cl)cccc1Cl, the “hERG current change (%, negative = inhibition) at 10uM” value rises from -18.4% to 17.4%.

Compared with Cc1ccc(C(=O)NCC(=O)OC(C)C(=O)Nc2ccc(N3CCOCC3)cc2)s1 (centres unmarked), Cc1ccc(C)c(N(CC(=O)NC(C)(C)C)C(=O)CNC(=O)c2cccs2)c1 is higher in “hERG current change (%, negative = inhibition) at 10uM” value: -5.66% for the first, 9.19% for the second.

Going from CCCCNC(=O)N1CCN(c2ccccc2OCC)CC1 to CCN(CC)c1ncnc2sc(C(=O)N3CCN(c4ccc(OC)cc4)CC3)c(C)c12, the “hERG current change (%, negative = inhibition) at 10uM” value falls from -0.115% to -41.5%.

Going from CC(C)=CCCC1=CCC2C(=O)NNC(=O)C2C1 (centres unmarked) to COC(=O)c1nn(C23CC4CC(CC(C4)C2)C3)c2c1C(=O)N(c1ccc(F)cc1)C2=O, the “hERG current change (%, negative = inhibition) at 10uM” value falls from 9.53% to 2.61%.

Going from CC(C)(C)c1nc(SCC(=O)NCc2ccco2)c2ccccc2n1 to Cc1ccc(-c2csc(NC(=O)CSc3nc4ccccc4c(=O)n3CCCN(C)C)n2)cc1, the “hERG current change (%, negative = inhibition) at 10uM” value falls from -15.7% to -35.2%.

Compared with CCN(CC)C(=O)CSc1nnc(-c2ccccn2)n1-c1ccccc1OC, Cc1cc(NC(=O)COc2ccccc2C)ccc1NC(=O)c1cccs1 is lower in “hERG current change (%, negative = inhibition) at 10uM” value: 12.8% for the first, 0.541% for the second.

Compared with N#Cc1cc(N)ccc1Sc1ccccc1, COc1ccc(NC(=O)NNC(=O)c2ccc(-c3ccccc3)cc2)c(OC)c1 is lower in “hERG current change (%, negative = inhibition) at 10uM” value: 3.91% for the first, -8.29% for the second.

Compared with c1ccc2[nH]c(NN=C3CCCCCC3)nc2c1, COc1cc(C(=O)Nc2nc3ccccc3[nH]2)cc(OC)c1OC is lower in “hERG current change (%, negative = inhibition) at 10uM” value: -2.85% for the first, -19.2% for the second.

Compared with O=C(Cc1ccc(F)cc1)N/N=C/c1ccccn1, O=C(OCc1cccc([N+](=O)[O-])c1)c1cnccn1 is lower in “hERG current change (%, negative = inhibition) at 10uM” value: 3.81% for the first, -2.76% for the second.

First: CC(C)(C)NC(=O)COC(=O)c1cc(Br)ccc1Cl
Second: COc1cc(CC(=O)OCC(=O)Nc2cccc([N+](=O)[O-])c2)cc(OC)c1OC
The “hERG current change (%, negative = inhibition) at 10uM” value of the first is higher: 24.3% for the first, -35.7% for the second.

First: Cc1cc(OC(=O)N2CCCCC2)cc(C)c1Cl
Second: Cc1nc2nc(SCC(=O)NCCCN3CCCCCC3)nn2c(C)c1Cc1ccccc1Cl
The “hERG current change (%, negative = inhibition) at 10uM” value of the first is higher: -18.4% for the first, -25.6% for the second.

Compared with CC(C)OCCCNC(=O)c1cn(C)c2ccc(S(=O)(=O)N(C)C3CCCCC3)cc2c1=O, CCOc1ccc(S(=O)(=O)N2CCOCC2)cc1NS(=O)(=O)c1ccc(OC)c([N+](=O)[O-])c1 is lower in “hERG current change (%, negative = inhibition) at 10uM” value: -22% for the first, -41.7% for the second.

Compared with O=C(NC(Cc1ccccc1)C(=O)O)NC12CC3CC(CC(C3)C1)C2 (centres unmarked), CCC1CCCCN1C(=O)c1ccc(OC2CCN(C(=O)C3CC3)CC2)cc1 (centres unmarked) is lower in “hERG current change (%, negative = inhibition) at 10uM” value: 18.5% for the first, 18.3% for the second.

Going from CC(C)c1c(C(=O)N/N=C/c2ccc(Cl)cc2Cl)nnn1-c1nonc1N to C=CCNC(=O)c1ccc(-c2nc(-c3ccc(Cl)c(Cl)c3)cs2)cc1, the “hERG current change (%, negative = inhibition) at 10uM” value falls from 20.9% to -3.24%.

First: Cc1nnc(SCC(=O)c2cc(C)n(-c3ccc4c(c3)OCO4)c2C)s1
Second: Cl.Clc1ccc(CSc2nnc([C@@H]3CCCN3)o2)cc1
The “hERG current change (%, negative = inhibition) at 10uM” value of the first is higher: -2.46% for the first, -3.36% for the second.
